Measured values: patent US20250333481A1 (JCR PHARMACEUTICALS, published 2025)

B1: hBDNF-HSA-VHH (other)
chain: HSDPARRGELSVCDSISEWVTAADKKTAVDMSGGTVTVLEKVPVSKGQLKQYFYETKCNPMGYTKEGCRGIDKRHWNSQCRTTQSYVRALTMDSKKRIGWRFIRIDTSCVCTLTIKRGRGSDAHKSEVAHRFKDLGEENFKALVLIAFAQYLQQCPFEDHVKLVNEVTEFAKTCVADESAENCDKSLHTLFGDKLCTVATLRETYGEMADCCAKQEPERNECFLQHKDDNPNLPRLVRPEVDVMCTAFHDNEETFLKKYLYEIARRHPYFYAPELLFFAKRYKAAFTECCQAADKAACLLPKLDELR[sequence of about 200 residues not given]NLIKQNCELFEQLGEYKFQNALLVRYTKKVPQVSTPTLVEVSRNLGKVGSKCCKHPEAKRMPCAEDCLSVFLNQLCVLHEKTPVSDRVTKCCTESLVNGRPCFSALEVDETYVPKEFNAETFTFHADICTLSEKERQIKKQTALVELVKHKPKATKEQLKAVMDDFAAFVEKCCKADDKETCFAEEGKKLVAASQAALGLGSGGSQVQLVESGGGLVQPGGSLRLSCAASGSIFDIYVMRWYRQAPGKGLEWVASIYDGGRNDYDNVVKGRFTISRDNSKNTLYLQMNSLRAEDTAVYFCNVLTYAGRPYWGQGTQVTVSS
notes: SE-HPLC: 99.0% monomer; also called hBDNF-HSA-VHH purified product
B2: hBDNF-VHH-HSA (other)
chain: HSDPARRGELSVCDSISEWVTAADKKTAVDMSGGTVTVLEKVPVSKGQLKQYFYETKCNPMGYTKEGCRGIDKRHWNSQCRTTQSYVRALTMDSKKRIGWRFIRIDTSCVCTLTIKRGRGSGGSQVQLVESGGGLVQPGGSLRLSCAASGSIFDIYVMRWYRQAPGKGLEWVASIYDGGRNDYDNVVKGRFTISRDNSKNTLYLQMNSLRAEDTAVYFCNVLTYAGRPYWGQGTQVTVSSGSDAHKSEVAHRFKDLGEENFKALVLIAFAQYLQQCPFEDHVKLVNEVTEFAKTCVADESAENCDKSLHTLFGDKLCTVATLRETYGEMADCCAKQEPERNECFLQHKDDNPNLPRLVRPEVDVMCTAFHDNEETFLKKYLYEIARRHPYFYAPELLFFAKRYKAAFTECCQAADKAACLLPKLDELR[sequence of about 200 residues not given]NLIKQNCELFEQLGEYKFQNALLVRYTKKVPQVSTPTLVEVSRNLGKVGSKCCKHPEAKRMPCAEDCLSVFLNQLCVLHEKTPVSDRVTKCCTESLVNGRPCFSALEVDETYVPKEFNAETFTFHADICTLSEKERQIKKQTALVELVKHKPKATKEQLKAVMDDFAAFVEKCCKADDKETCFAEEGKKLVAASQAALGL
notes: SE-HPLC: 98.1% monomer; also called hBDNF-VHH-HSA purified product

What was measured:
[1] = molecular target: T1, mouse transferrin receptor, recombinant extracellular domain (mouse, UniProt Q62351); assay: BLI (Octet RED96e), TfR loaded on Ni-NTA biosensor, analyte 80, 40, 20 nM, 1:1 binding model
T1 construct: extracellular domain; also called mTfR; mouse TER
Method: (§1) The binding affinity of hBDNF-HSA-VHH and hBDNF-VHH-HSA for human or mouse TER was measured with Octet RED96e (ForteBio), a biomolecule interaction analysis system using biolayer interferometry. Human TER (hTER) used was a recombinant containing the amino acid sequence of the extracellular domain of hTER from the 89th cysteine residue from the N terminal side to the phenylalanine at the C terminal in the amino acid sequence of hTER represented by SEQ ID NO: 22. Mouse TER (mTER) used was, a recombinant of the extracellular domain of mTER corresponding to the extracellular domain of hTER.
(§2) Each of the hBDNF-HSA-VHH purified product and the hBDNF-VHH-HSA purified product obtained in Example 46 was serially diluted with HBS-P+buffer (Cytiva) containing 1% BSA (FUJIFILM Wako Pure Chemical Corporation) to prepare solutions of 80, 40, 20 nM. This was used as an analyte solution. Human TER and mouse TER were each diluted in HBS-P+buffer containing 1% BSA to prepare a 20 μg/mL solution. This was used as a ligand solution.
(§3) The sample solution and the ligand solution were added to predetermined wells of a black 96-well plate for Octet RED96e (Greiner) in 200 μL each. To the wells for baseline, dissociation and washing was added 200 μL of HBS-P+buffer containing 1% BSA. To the wells for regeneration was added 200 μL of 10 mM glycine buffer (pH 1.7). To the wells for activation was added 200 μL of 0.5 mM NiCl₂ solution. This 96-well plate and a Ni-NTA biosensor (ForteBio) were placed in place in an Octet RED96e instrument. After data acquisition by operating the Octet RED96e under the conditions shown in Table 9 below, the association rate constant (Kₒₙ) and dissociation rate constant (Koff) in the 1:1 binding model were calculated using the software attached to Octet RED96e, and the dissociation constant (Kd) was calculated. The measurement was carried out at a temperature of 25 to 30° C.

[2] = molecular target: T2, human transferrin receptor, recombinant extracellular domain (human, UniProt P02786); assay: as above
T2 construct: also called hTfR; human TER
Method: as §1, §2, §3

T1 sequence (Q62351 89-763): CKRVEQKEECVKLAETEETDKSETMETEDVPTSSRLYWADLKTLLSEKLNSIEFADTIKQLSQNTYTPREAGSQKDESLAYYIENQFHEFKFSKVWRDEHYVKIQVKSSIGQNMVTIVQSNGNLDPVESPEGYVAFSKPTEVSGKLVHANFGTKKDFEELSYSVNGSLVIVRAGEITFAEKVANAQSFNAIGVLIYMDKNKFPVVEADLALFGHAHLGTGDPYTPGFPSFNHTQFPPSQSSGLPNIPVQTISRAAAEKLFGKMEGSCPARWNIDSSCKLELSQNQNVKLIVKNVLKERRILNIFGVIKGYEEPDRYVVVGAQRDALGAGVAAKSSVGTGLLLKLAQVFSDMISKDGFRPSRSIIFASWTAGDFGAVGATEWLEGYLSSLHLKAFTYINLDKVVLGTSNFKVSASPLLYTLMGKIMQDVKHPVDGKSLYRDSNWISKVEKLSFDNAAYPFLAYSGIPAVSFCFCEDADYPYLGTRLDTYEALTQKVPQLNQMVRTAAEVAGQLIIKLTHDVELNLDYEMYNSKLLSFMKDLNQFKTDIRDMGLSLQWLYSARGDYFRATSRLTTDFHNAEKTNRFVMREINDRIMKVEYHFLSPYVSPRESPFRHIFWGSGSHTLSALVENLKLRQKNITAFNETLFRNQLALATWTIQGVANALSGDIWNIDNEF
T2 sequence (P02786 89-760): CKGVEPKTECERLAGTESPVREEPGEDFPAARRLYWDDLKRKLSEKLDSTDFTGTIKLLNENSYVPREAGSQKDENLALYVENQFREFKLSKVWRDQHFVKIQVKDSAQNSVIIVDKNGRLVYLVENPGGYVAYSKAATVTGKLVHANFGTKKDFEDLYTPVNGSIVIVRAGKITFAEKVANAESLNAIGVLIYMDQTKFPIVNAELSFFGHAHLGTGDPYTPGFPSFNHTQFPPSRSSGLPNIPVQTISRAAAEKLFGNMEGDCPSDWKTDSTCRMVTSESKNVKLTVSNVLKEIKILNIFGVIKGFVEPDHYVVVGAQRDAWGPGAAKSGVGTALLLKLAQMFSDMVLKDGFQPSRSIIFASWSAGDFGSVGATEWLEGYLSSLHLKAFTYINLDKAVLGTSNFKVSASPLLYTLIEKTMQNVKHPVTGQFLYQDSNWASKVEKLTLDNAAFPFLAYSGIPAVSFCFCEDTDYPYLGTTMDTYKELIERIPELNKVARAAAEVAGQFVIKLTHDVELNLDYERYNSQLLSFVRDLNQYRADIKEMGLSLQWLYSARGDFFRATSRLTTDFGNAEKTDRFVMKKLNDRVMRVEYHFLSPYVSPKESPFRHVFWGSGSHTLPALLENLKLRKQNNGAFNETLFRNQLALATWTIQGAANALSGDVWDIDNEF

Binder	Kd [1] [nM]	koff [1] [s⁻¹]	kon [1] [M⁻¹ s⁻¹]	Kd [2] [nM]	koff [2] [s⁻¹]	kon [2] [M⁻¹ s⁻¹]
B1	2.04	0.000664	326000	0.46	0.000146	318000
B2	2.82	0.00053	188000	0.904	0.000213	236000
